Reference: US20250270287A1 (KEROS THERAPEUTICS, published 2025)

Columns and labels:
Experiment in all cases: SPR (Biacore 8K), Fc protein captured on anti-human IgG, ligand injected
GDF-11 = target: T1, GDF-11 (UniProt O95390 299-407)
T1 construct: also called growth and differentiation factor 11
T1 sequence (looked up): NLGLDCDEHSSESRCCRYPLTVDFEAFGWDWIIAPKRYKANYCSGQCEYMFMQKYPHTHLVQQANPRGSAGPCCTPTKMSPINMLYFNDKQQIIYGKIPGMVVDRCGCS
Procedure: (§1) The Cytiva Biacore 8k was used to measure the kinetics of the interactions between the ActRII- and chimera-Fc proteins and Activin A/Activin B/growth differentiation factor 8 (GDF-8)/GDF-11/BMP-9/BMP-10. Series S CM4 Sensor Chips were immobilized with anti-human capture antibody using the reagents and protocol in the Biacore Human Antibody Capture Kit (GE Life Sciences). Briefly, anti-human IgG was diluted to 25 μg/mL in immobilization buffer. The carboxylated surface of the sensor was activated by injecting a mixture of EDC and NHS. The anti-human IgG was injected into the activated sensor chip flow cells at 10 μL/min for a total of 7 minutes until the chip reached an immobilization level of 3000 resonance units (RU). Ethanolamine was injected to deactivate the sensor surfaces. The chip has 8 flow cells to be used for binding analysis, each with an in-line reference surface to subtract instrument noise and non-specific binding to the sensor chip. The ActRII- and chimera-Fc proteins were captured in their own flow cell to allow for a maximum analyte binding response of 20-30 RU. This was done by injecting 10-20 μL of the ActRII- and chimera-Fc proteins into the flow cells at a concentration of 2 μg/mL until 60-90 RU was captured. Ligand at a single concentration was injected at […] for 60 seconds and then allowed to dissociate under buffer flow for no less than 5 minutes. After the cycle completed, captured protein was stripped from the chip with an injection of 3 M magnesium chloride, the regeneration buffer provided with the Biacore Human Antibody Capture Kit. Each ligand was injected in a concentration series, including a buffer only 0 nM concentration to serve as a double reference for subtracting out instrument noise. The data were analyzed using the Biacore Insight Evaluation Software.

BMP-10 = target: T2, BMP-10 (UniProt O95393 317-424)
T2 sequence (looked up): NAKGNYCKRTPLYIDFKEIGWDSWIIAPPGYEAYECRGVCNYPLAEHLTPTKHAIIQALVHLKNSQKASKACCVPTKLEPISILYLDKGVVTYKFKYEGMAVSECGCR
Procedure: as §1

Activin A = target: T3, Activin A (UniProt P08476 311-426)
T3 sequence (looked up): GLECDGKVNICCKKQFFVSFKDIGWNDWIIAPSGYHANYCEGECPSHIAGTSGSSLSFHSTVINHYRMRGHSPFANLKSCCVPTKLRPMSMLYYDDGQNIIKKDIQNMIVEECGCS
Procedure: as §1

BMP-9 = target: T4, BMP-9 (UniProt Q9UK05 320-429)
T4 construct: also called bone morphogenetic protein 9
T4 sequence (looked up): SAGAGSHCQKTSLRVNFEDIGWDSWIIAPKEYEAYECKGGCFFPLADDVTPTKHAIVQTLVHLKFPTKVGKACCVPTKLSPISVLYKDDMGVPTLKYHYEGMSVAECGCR
Procedure: as §1

[1] = target: T5, growth differentiation factor 8 (GDF-8) (UniProt O14793 267-375)
T5 construct: also called myostatin
T5 sequence (looked up): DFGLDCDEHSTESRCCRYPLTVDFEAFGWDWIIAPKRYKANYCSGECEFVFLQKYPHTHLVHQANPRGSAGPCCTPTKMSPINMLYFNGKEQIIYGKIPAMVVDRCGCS
Procedure: as §1

Activin B = target: T6, Activin B (UniProt P09529 293-407)
T6 sequence (looked up): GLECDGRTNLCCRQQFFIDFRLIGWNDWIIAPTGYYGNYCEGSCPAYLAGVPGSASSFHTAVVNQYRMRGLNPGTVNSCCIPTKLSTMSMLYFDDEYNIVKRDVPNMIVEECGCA
Procedure: as §1

B1: ActRIIA (SEQ ID NO: 30) Fc protein (Fc fusion)
chain: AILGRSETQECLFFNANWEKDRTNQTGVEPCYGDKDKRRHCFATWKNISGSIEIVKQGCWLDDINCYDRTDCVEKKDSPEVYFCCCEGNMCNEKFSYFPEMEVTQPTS
notes: also called ActRII-Fc; wild-type extracellular ActRIIA; not shown: linker (if any) and Fc domain
B1 gave a Kd (GDF-11) of less than 0.001 nM, a Kd (BMP-10) of 0.105 nM and a Kd (Activin A) of 0.16 nM. The Kd (BMP-9) was 59.1 nM, the Kd [1] was 0.222 nM and the Kd (Activin B) was 0.066 nM.
